Assay results from US20220389066A1, “POLYPEPTIDES” (Affibody AB, priority 2019, published 2022).

What was measured:
[1] = target: T1, HMGB1(red) (Rattus norvegicus, UniProt P63159); test: In vitro cell migration assay, mouse 3T3 fibroblasts in modified Boyden chambers; type: cell-based; conditions: 1 nM or 0.2 nM HMGB1(red), 3 h
T1 construct: purchased HMGBiotech Srl, Milano, Italy
T1 sequence (P63159 2-215): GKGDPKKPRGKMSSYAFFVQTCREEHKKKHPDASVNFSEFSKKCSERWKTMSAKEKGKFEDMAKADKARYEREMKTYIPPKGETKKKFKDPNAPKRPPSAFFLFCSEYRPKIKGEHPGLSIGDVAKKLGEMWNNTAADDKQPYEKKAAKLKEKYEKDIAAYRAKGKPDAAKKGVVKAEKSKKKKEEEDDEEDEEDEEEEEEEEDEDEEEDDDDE
Description: In vitro cell migration assay: Mouse 3T3 fibroblast cells were used to assess the ability of His6-tagged Z variants to inhibit migration of cells in response to HMGB1 in modified Boyden Chambers (Neuroprobe Inc.). Mouse 3T3 fibroblasts were grown in Dulbecco's Modified Eagle Medium (DMEM, Gibco) with 10% fetal bovine serum (FBS, Gibco), 1% L-glutamine and antibiotics (Lonza). Prior to use, cells were centrifuged and the pellet was resuspended in DMEM (without FBS) without further washing. Polycarbonate filters (Neuroprobe Inc.; #PFA8) with 8 μm pores were coated with human fibronectin (Roche). Serum-free DMEM (negative control), DMEM containing 1 nM HMGB1(red) (positive control), and DMEM containing 1 nM HMGB1(red) plus Z variants ZH 01 (SEQ ID NO:1) and ZH 31 (SEQ ID NO:31) at a concentration of 10 or 100 ng/ml, were placed in the lower wells. A control polypeptide, Z04726 (SEQ ID NO:54), binding an irrelevant target, was used as negative control. boxA(red) (SEQ ID NO:51), a known competitor of HMGB1, was used at 1 nM concentration as positive control for inhibition of HMGB1 induced cell migration. Fibronectin-coated filters were placed so as to separate the lower and the upper wells, and 50000 3T3 cells were placed in the upper wells. The chambers were kept at 37° C. in a 5% CO2, humidified incubator for 3 h. The cells were then fixed with 100% ethanol (Sigma) and stained 20 minutes with Giemsa Stain (Sigma). The cells on the lower side of the filter were counted with a Leica DM LS2 microscope at 400× magnification.
ZH 30 was tested in a migration assay by performing an extended titration to allow IC50 calculations with 0.2 nM HMGB1(red) and lower concentrations of Z variants (0.1 ng/ml, 0.3 ng/ml, 1 ng/ml). A control polypeptide, ZZA4014 (SEQ ID NO:49), binding an irrelevant target and cloned and produced as described in Example 4, was used as negative control in this set up.
In vitro cell migration assay: The migration assay was performed essentially as described for monomeric Z variants in Example 3. One monomeric Z-ABD polypeptide, ZA3812 (SEQ ID NO:35); five heterodimeric polypeptides, ZZA4010 (SEQ ID NO:38), ZZA4011 (SEQ ID NO:39), ZZA4012 (SEQ ID NO:40), ZZA4013 (SEQ ID NO:41) and ZAZ4015 (SEQ ID NO:42); and three homodimeric polypeptides, ZZA4053 (SEQ ID NO:43), ZZA4054 (SEQ ID NO:44) and AZ4057 (SEQ ID NO:45), were tested in a migration assay by performing an extended titration, to allow IC50 calculations with 0.2 nM HMGB1 and reducing doses of polypeptides (0.1 nM, 0.3 nM, 1 nM). ZZA4014 (SEQ ID NO:49), binding an irrelevant target, was included as a negative control.

[2] = target: T2, boxA(disulfide) (Homo sapiens, UniProt P09429); test: Biacore binding analysis of mutated Z variants, immobilized boxA(disulfide); conditions: His6-tagged Z variant as analyte; HBS-EP; 1:1 model
T2 construct: purchased HMGBiotech Srl, Milano, Italy
T2 sequence (P09429 1-89): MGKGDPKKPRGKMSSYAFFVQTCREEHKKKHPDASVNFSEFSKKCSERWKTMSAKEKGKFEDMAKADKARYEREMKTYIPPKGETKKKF
Description: (§1) Binding analysis of mutated Z variants: A binding analysis was performed using a Biacore 2000 instrument. All alanine mutated Z variants, together with the original Z variant ZH 01, were analyzed against GST-boxA(red), HMGB1(red), boxA(disulfide) and HMGB1(disulfide). The immobilizations and Biacore analyses were performed essentially as described in Example 3. However, in these analyses, the different targets were directly coupled to separate flow cells of different CM5 chip surfaces and a flow rate of 30 μl/min was used. The ligand immobilization levels on the surfaces were 1410 RU for GST-boxA(red), 1380 RU for HMGB1(red), 540 RU for boxA(disulfide) and 2900 RU for HMGB1(disulfide). The analytes, i.e. the Z variants, were each diluted in HBS-EP buffer (or in HBS-EP+2 mM DTT for use in analysis with reduced targets GST-boxA(red) and HMGB1(red)), within a concentration range of 50 to 1350 nM and injected for 3 min, followed by dissociation in running buffer for 35 min. No regeneration buffer was used in the analyses. Instead, the dissociation time was enough for all binders to dissociate from the chip surfaces. HBS-EP was used as running buffer for targets boxA(disulfide) and HMGB1(disulfide) while HBS-EP+2 mM DTT was used for reduced targets GST-boxA(red) and HMGB1(red). The dissociation constants were calculated as in Example 3.

[3] = Circular dichroism (CD) spectroscopy, variable temperature measurement; type: physicochemical; conditions: His6-tagged Z variants; CD at 221 nm, 20 to 80-90° C.
Description: Circular dichroism (CD) spectroscopy analysis: The His6-Z variants produced in Example 2 were diluted to 25 μM in PBS or H2O. A CD spectrum at 250-195 nm was obtained at 20° C. In addition, a variable temperature measurement (VTM) was performed to determine the melting temperature (Tm). In the VTM, absorbance was measured at 221 nm while the temperature was raised from 20° C. to 80° C. (in some cases to 90° C.), with a temperature slope of 5° C./min. A new CD spectrum was obtained at 20° C. after the heating procedure, in order to study the refolding ability of the Z variants. The CD measurements were performed on a Jasco J-810 spectropolarimeter (Jasco Scandinavia AB) using a cell with an optical path length of 1 mm.
Circular dichroism (CD) spectroscopy analysis: The measurements were performed essentially as described in Example 3.

[4] = target: T3, GST-boxA(red) (Homo sapiens, UniProt P09429); test: Biacore binding analysis of mutated Z variants, immobilized GST-boxA(red); conditions: His6-tagged Z variant as analyte; HBS-EP + 2 mM DTT; 1:1 model
T3 construct: purchased HMGBiotech Srl, Milano, Italy
T3 sequence (P09429 with tags, fused parts or gaps): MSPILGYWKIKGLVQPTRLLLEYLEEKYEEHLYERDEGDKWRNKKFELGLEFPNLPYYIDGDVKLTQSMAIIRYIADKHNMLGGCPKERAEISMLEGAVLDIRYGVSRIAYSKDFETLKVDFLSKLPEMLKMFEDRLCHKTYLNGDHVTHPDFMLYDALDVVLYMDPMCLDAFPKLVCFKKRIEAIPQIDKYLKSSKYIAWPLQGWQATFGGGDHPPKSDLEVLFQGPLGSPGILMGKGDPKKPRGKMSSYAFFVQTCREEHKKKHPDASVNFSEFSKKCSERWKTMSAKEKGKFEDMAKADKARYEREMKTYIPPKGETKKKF
Description: as §1

[5] = target: T4, HMGB1(red) (Rattus norvegicus, UniProt P63159); test: Biacore binding analysis of mutated Z variants, immobilized HMGB1(red); conditions: His6-tagged Z variant as analyte; HBS-EP + 2 mM DTT; 1:1 model
T4 construct: purchased HMGBiotech Srl, Milano, Italy
T4 sequence (P63159 1-215): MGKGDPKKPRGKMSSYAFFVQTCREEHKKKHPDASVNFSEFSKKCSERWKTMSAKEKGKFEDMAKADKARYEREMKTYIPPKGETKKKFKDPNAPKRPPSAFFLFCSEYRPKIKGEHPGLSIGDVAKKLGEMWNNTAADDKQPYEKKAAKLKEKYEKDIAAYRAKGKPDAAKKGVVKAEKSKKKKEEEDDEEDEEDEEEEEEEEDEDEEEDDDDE
Description: as §1

[6] = target: T5, HMGB1(disulfide) (Rattus norvegicus, UniProt P63159); test: Biacore binding analysis of mutated Z variants, immobilized HMGB1(disulfide); conditions: His6-tagged Z variant as analyte; HBS-EP; 1:1 model
T5 construct: purchased HMGBiotech Srl, Milano, Italy
T5 sequence (P63159 1-215): T4 sequence (P63159 1-215)
Description: as §1

inhibition of HMGB1 induced cell migration [1] | Kd [2] [µM] | Kd [4] [µM] | Kd [5] [µM] | Kd [6] [µM] | Substance | Tm (° C.) [3] [°C]
no inhibition | – | – | – | – | Z04726: control polypeptide binding an irrelevant target, used as negative control (VDAKYAKELGWATWEIFNLPNLTGVQVKAFIDKLRDDPSQSSELLSEAKKLNDSQAPK; Engineered negative control polypeptide) [reference compound] | –
– | 0.77 | 0.036 | 0.018 | 0.15 | ZH14: single-point mutation variant of ZH 01, D9A (VDAKYAKEAWDAFWEIIWLPNLTDAQQRAFIYKLEDDPSQSSELLSEAKKLNDSQAPK; Engineered HMGB1 binding polypeptide) | 59
– | – | – | 0.57 | 12 | ZH15: single-point mutation variant of ZH 01, W10A (VDAKYAKEDADAFWEIIWLPNLTDAQQRAFIYKLEDDPSQSSELLSEAKKLNDSQAPK; Engineered HMGB1 binding polypeptide) | 44
– | 0.66 | 0.021 | 0.01 | 0.13 | ZH16: single-point mutation variant of ZH 01, D11A (VDAKYAKEDWAAFWEIIWLPNLTDAQQRAFIYKLEDDPSQSSELLSEAKKLNDSQAPK; Engineered HMGB1 binding polypeptide) | 50
– | – | – | – | 6.8 | ZH17: single-point mutation variant of ZH 01, F13A (VDAKYAKEDWDAAWEIIWLPNLTDAQQRAFIYKLEDDPSQSSELLSEAKKLNDSQAPK; Engineered HMGB1 binding polypeptide) | 43
– | – | 0.37 | 0.29 | 2.2 | ZH18: single-point mutation variant of ZH 01, W14A (VDAKYAKEDWDAFAEIIWLPNLTDAQQRAFIYKLEDDPSQSSELLSEAKKLNDSQAPK; Engineered HMGB1 binding polypeptide) | 41
– | – | – | – | 3.1 | ZH19: single-point mutation variant of ZH 01, I17A (VDAKYAKEDWDAFWEIAWLPNLTDAQQRAFIYKLEDDPSQSSELLSEAKKLNDSQAPK; Engineered HMGB1 binding polypeptide) | 42
– | 50 | 0.13 | 0.09 | 1.5 | ZH20: single-point mutation variant of ZH 01, W18A (VDAKYAKEDWDAFWEIIALPNLTDAQQRAFIYKLEDDPSQSSELLSEAKKLNDSQAPK; Engineered HMGB1 binding polypeptide) | 55
– | 1.5 | 0.11 | 0.064 | 0.67 | ZH21: single-point mutation variant of ZH 01, D24A (VDAKYAKEDWDAFWEIIWLPNLTAAQQRAFIYKLEDDPSQSSELLSEAKKLNDSQAPK; Engineered HMGB1 binding polypeptide) | 53
– | 0.33 | 0.017 | 0.009 | 0.19 | ZH22: single-point mutation variant of ZH 01, A25S (VDAKYAKEDWDAFWEIIWLPNLTDSQQRAFIYKLEDDPSQSSELLSEAKKLNDSQAPK; Engineered HMGB1 binding polypeptide) | 46
– | 0.79 | 0.067 | 0.041 | 0.87 | ZH23: single-point mutation variant of ZH 01, Q27A (VDAKYAKEDWDAFWEIIWLPNLTDAQARAFIYKLEDDPSQSSELLSEAKKLNDSQAPK; Engineered HMGB1 binding polypeptide) | 47
– | – | – | 0.68 | 7.8 | ZH24: single-point mutation variant of ZH 01, R28A (VDAKYAKEDWDAFWEIIWLPNLTDAQQAAFIYKLEDDPSQSSELLSEAKKLNDSQAPK; Engineered HMGB1 binding polypeptide) | 47
– | – | – | – | 7.8 | ZH25: single-point mutation variant of ZH 01, Y32A (VDAKYAKEDWDAFWEIIWLPNLTDAQQRAFIAKLEDDPSQSSELLSEAKKLNDSQAPK; Engineered HMGB1 binding polypeptide) | 56
– | – | 0.22 | 0.11 | 2.4 | ZH26: single-point mutation variant of ZH 01, E35A (VDAKYAKEDWDAFWEIIWLPNLTDAQQRAFIYKLADDPSQSSELLSEAKKLNDSQAPK; Engineered HMGB1 binding polypeptide) | 56
